Source: ChEMBL document CHEMBL4888484, “Replenishing the malaria drug discovery pipeline: Screening and hit evaluation of the MMV Hit Generation Library 1 (HGL1) against asexual blood stage Plasmodium falciparum ,using a nano luciferase reporter read-out” (2022)
Out of some 150,000 compounds screened, about 540 (0.36%) showed an effect of 50% or more. The list shows a part of the results.

Tested on: Plasmodium falciparum
Assay: Primary screen in NF54 nanoGlo assay, in single point, at 2uM, 72h; a lower Z score goes with more inhibition
Type: functional, Erythrocyte
Settings: timepoint 72 hour

SMILES | % Inhibition [%] | Z score
O=C(NC1CCC2CCCC2C1)c1cncnc1C1CC1 (centres undefined) | 29 | -3.32
COc1cc(C(=O)N2CC[C@]3(OC)CC[C@@H](NC(=O)C4CCC4)C[C@H]23)ccn1 | 1 | -0.08
CC(C)(C)c1cc(CNC(=O)[C@H](O)c2cccc(Cl)c2)[nH]n1 | -4 | 0.85
CN(Cc1ncnn1C)C(=O)c1cc(F)cc(Cl)c1O | 27 | -3.07
Cc1nc(Cn2ccc(-c3cccc(-c4ccc(N(C)C)nn4)c3)n2)cs1 | -15 | 2.32
CC(C)c1nnc(NC(=O)CC[C@H]2NC(=O)c3ccccc3NC2=O)s1 | 7 | -0.86
Cc1cc(CN(C)c2ncc(Cl)cn2)no1 | -3 | 0.39
CC(=O)N1CCN(C(=O)c2cnn3c(-c4ccc(Cl)cc4)ccnc23)CC1 | -10 | 1.63
O=C(C[C@H]1CCS(=O)(=O)C1)Nc1ccc2c(c1)OCCO2 | -10 | 1.4
O=C(C[C@H]1C(=O)NCCN1Cc1cccnc1)NCCOc1ccccc1 | 10 | -1.35
Cc1ccccc1NC(=O)N1C[C@H](O)[C@@H](N(C)Cc2cnn(C)c2)C1 | -3 | 0.37
CCn1cc(-c2nc(C)c(C(=O)NCc3ccccn3)s2)c2cccnc21 | -7 | 1.26
NC(=O)c1ccc(-c2ccccc2Oc2ccccc2)nc1 | -6 | 0.81
Cc1noc(C)c1CC(=O)N1CC(F)(F)C[C@H]1c1nncn1CC1CC1 | -7 | 0.91
C[C@@H](C(=O)Nc1ncccn1)N(C)Cc1cc(Cl)cc(Cl)c1 | -46 | 5.44
O=C1CC[C@H](C(=O)N2CCN(c3ncccn3)CC2)CN1 | 34 | -3.87
CC(C)n1nnnc1-c1ccc(NC(=O)[C@@H]2CCCO2)cc1F | 10 | -1.05
CCOCCCNC(=O)C1CCN(c2nnc(C)c3c(C)n(-c4ccc(OC)cc4)nc23)CC1 | 6 | -0.75
Cc1cccc(NCC(=O)Nc2ncc(Cc3c(Cl)cccc3Cl)s2)c1 | 29 | -3.25
CC(NC(=O)NCCC1Cc2ccccc2C1)C1CN(C)CCO1 (centres undefined) | -2 | 0.42
Cc1nc2c([nH]1)CN(CC1(C)CCOCC1)CC2 | -6 | 1

SMILES | % Inhibition [%] | Z score
CN(C)C(=O)N1CCC(CNC(=O)Cc2ccsc2)CC1 | 3 | -0.36
O=C(NCc1ccncc1)c1nn(-c2ccccc2F)c(=O)n(Cc2ccc(C(F)(F)F)cc2)c1=O | 5 | -0.6
CC(C)Cc1cc(C(=O)N2CCc3nc(N)sc3C2)on1 | -7 | 1.3
Cc1nn(-c2ccc(F)cc2)c2[nH]nc(NC(=O)Cc3ccon3)c12 | -7 | 0.73
Cc1ccc(C(=O)N2CC3(C)CN(C(=O)c4ccc(C)cc4)CC(c4ccccc4)(C2)C3=O)cc1 | 4 | -0.72
Cc1cnccc1NCCNc1cc([C@H]2CCOC2)ncn1 | -7 | 1.07
Cc1cc(NC(=O)[C@@H]2CCCN2C(=O)c2cccs2)nc(-c2ccccc2)n1 | -24 | 2.55
Cn1ccc(C(=O)N2CCO[C@H]2C(F)(F)F)n1 | 10 | -1.25
C[C@]1(C(=O)Nc2cccnc2)CC1(F)F | -10 | 1.36
CCN(CC(=O)Nc1c(Cl)cccc1Cl)c1ncnc2onc(C)c12 | -9 | 1.05
O=C1NN=C2CCC34CC12CCC3=NNC4=O | 2 | -0.18
Cc1cc(C(=O)N[C@@H](C)Cc2cccs2)no1 | -1 | 0.25
CCN1CCN(c2c(CN(C(=O)Nc3cccc(F)c3)C(C)C)c(C)nn2-c2cccc(F)c2)CC1 | 3 | -0.41
COC1(CS(=O)(=O)Nc2cc(N(C)C)ccc2C#N)CCCCC1 | -16 | 2.47
Cc1nc(-c2cc(S(=O)(=O)Nc3ccc(C)c(C)c3)c(C)s2)cs1 | -3 | 0.4
Cc1noc(C)c1CS(=O)(=O)Cc1ccn(C2CCCC2)n1 | -11 | 1.07
CC(C)Cn1ncnc1CN[C@@H](C)c1cnn(C)c1 | -3 | 0.39
COCCCn1c(=O)c2ccccc2n(CC(=O)N2CCCc3ccccc32)c1=O | 35 | -3.98
Cc1ccccc1NC(=O)COC(c1ccccc1)c1ccccc1 | -7 | 1.01
CCCc1sc(NC(=O)c2sc(C)nc2C)nc1C(=O)OC | -14 | 1.8
N#Cc1ccccc1-c1cccc2cccnc12 | -16 | 2.12
